Counter-ions that a name gives are not always drawn. ± gives the standard deviation of the averaged measurements. In all, about 2,000 compounds were measured (“relative cell viability vs DMSO, compound + 0.2 uM CuET”: median about 1, lowest 2% from about 0.25 on). The list shows a part of the results.

This passage reports relative cell viability results from the supplement of paper PMC10670038.

The test system of this test is TE10. The test can be described thus: relative cell viability vs DMSO, compound + 0.2 uM CuET (fraction); TE10 is an esophageal squamous carcinoma line; higher = less cytotoxic. The conditions noted are these: 2 µM; co-treatment: CuET (bis(diethyldithiocarbamate)copper) 0.2 uM; 48 h. The protocol:
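TE10 ESCC cells (1,000/well, 384-well plates) were treated with Selleck bioactive library compounds at 2 uM combined with 0.2 uM CuET (copper diethyldithiocarbamate) for 48 h. Viability was read by CellTiter-Glo and expressed relative to DMSO wells. Two technical replicates (A, B).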
Regarding `C[C@]12C=CC(=O)C=C1CC[C@@H]1[C@@H]2C(=O)C[C@@]2(C)[C@H]1CC[C@]2(O)C(=O)CO` [Prednisone], the relative cell viability amounted to 1.04 ± 0.13.
On to `COC(=O)CC[C@H](NC(=O)[C@H](CC(=O)OC)NC(=O)OCc1ccccc1)C(=O)N[C@H](C(=O)N[C@@H](CC(=O)OC)C(=O)CF)C(C)C`, for which the relative cell viability worked out at 1.19 ± 0.033.
Take `CC1(C)[C@@H](O[C@H]2O[C@H](C(=O)O)[C@@H](O)[C@H](O)[C@H]2O[C@@H]2O[C@H](C(=O)O)[C@@H](O)[C@H](O)[C@H]2O)CC[C@]2(C)[C@H]3C(=O)C=C4[C@@H]5C[C@@](C)(C(=O)O)CC[C@]5(C)CC[C@@]4(C)[C@]3(C)CC[C@@H]12` [Ammonium Glycyrrhizinate]: the relative cell viability worked out at 1.26 ± 0.14.
In the case of `COc1cc2nccc(Oc3ccc(NC(=O)Nc4ccc(F)cc4F)c(F)c3)c2cc1OC`, the relative cell viability is 0.942 ± 0.039.
In the case of `CNC(=C[N+](=O)[O-])NCCSCc1csc(CN(C)C)n1` [Nizatidine] it was 1.26 ± 0.16; in that of `CCC1=C[C@@H]2CN(C1)Cc1c([nH]c3ccccc13)[C@@](C(=O)OC)(c1cc3c(cc1OC)N(C)[C@H]1[C@@](O)(C(=O)OC)[C@H](OC(C)=O)[C@]4(CC)C=CCN5CC[C@]31[C@@H]54)C2` [Vinorelbine Tartrate], 0.683 ± 0.014.
With `CC(C)CN(C[C@@H](O)[C@H](Cc1ccccc1)NC(=O)O[C@H]1CCOC1)S(=O)(=O)c1ccc(N)cc1` [Amprenavir], the relative cell viability came to 1.02 ± 0.031.
For the compound `C=CC(=O)Nc1cccc(Nc2nc(Nc3ccc(NC4CN(CCF)C4)cc3OC)ncc2C(F)(F)F)c1`, the relative cell viability came out at 0.817 ± 0.025.
For `CS(=O)(=O)Nc1ccc([N+](=O)[O-])cc1Oc1ccccc1` [Nimesulide] the value was 1.08 ± 0.044; for `CCOC(=O)c1ccc(N2NC(=O)C(=Cc3ccc([N+](=O)[O-])o3)C2=O)cc1`, 0.916 ± 0.037; for `CCn1cc(C(=O)O)c(=O)c2cc(F)c(N3CCN(C)CC3)cc21` [Pefloxacin Mesylate], 1.17 ± 0.002.
As for `CCn1cc(C(=O)O)c(=O)c2cc(F)c(N3CCN(C)CC3)cc21` [Pefloxacin Mesylate Dihydrate], the relative cell viability was 1.18 ± 0.079.
In the case of `CCNC(=O)c1noc(-c2cc(Cl)c(O)cc2O)c1-c1ccc(OC)cc1` it was 0.636 ± 0.028; in that of `C[C@@H]1CN(c2c(F)c(N)c3c(=O)c(C(=O)O)cn(C4CC4)c3c2F)C[C@H](C)N1` [Sparfloxacin], 1.11 ± 0.013.
In the case of `O=C(O)P(=O)(O)O` [Foscarnet Sodium] it was 1.12 ± 0.14.
As for `CC(C)(C)NS(=O)(=O)c1cncc(-c2cc(F)c3nc(N)nn3c2)c1`, the relative cell viability was found to be 1.17 ± 0.012.
As for `CCN(CC)CCCC(C)Nc1c2ccc(Cl)cc2nc2ccc(OC)cc12` (configuration not stated) [Quinacrine 2HCl], the relative cell viability was 0.891 ± 0.044.
Consider `Cc1[nH]c(/C=C2\C(=O)Nc3ccccc32)c(C)c1CCC(=O)O` [TSU-68 (SU6668, Orantinib)], for which the relative cell viability amounted to 1.19 ± 0.14.
Take `CC(=O)N1CCN(c2ccc(OCC3COC(Cn4ccnc4)(c4ccc(Cl)cc4Cl)O3)cc2)CC1` (configuration not stated) [Ketoconazole]: the relative cell viability was found to be 1.06 ± 0.073.
For the compound `CN(CCOc1ccc(NS(C)(=O)=O)cc1)CCc1ccc(NS(C)(=O)=O)cc1` [Dofetilide], the relative cell viability stood at 1.15 ± 0.036.
`CC(C)NCC(O)c1ccc(NS(C)(=O)=O)cc1` (configuration not stated) [Sotalol]: the relative cell viability came to 1.116 ± 0.0046.
Regarding `C#C[C@]1(O)CC[C@H]2[C@@H]3CCc4cc(OC)ccc4[C@H]3CC[C@@]21C` [Mestranol], the relative cell viability is 1.03 ± 0.13.
For `C1=N/C2=N/c3ccc(OCCN4CCCC4)c(c3)COC/C=C/COCc3cccc(c3)C(=C1)N2` [Pacritinib (SB1518)] the value was 0.645 ± 0.03.
Regarding `COc1cc(C=O)ccc1O` [Vanillin], the relative cell viability was 1.29 ± 0.042.
Turning to `COc1ccc2cccc(CCNC(C)=O)c2c1` [Agomelatine], the relative cell viability worked out at 0.93 ± 0.19.
For `CO[C@H]1C[C@@H]2CC[C@@H](C)[C@@](O)(O2)C(=O)C(=O)N2CCCC[C@H]2C(=O)O[C@H]([C@H](C)C[C@@H]2CC[C@@H](O)[C@H](OC)C2)CC(=O)[C@H](C)/C=C(\C)[C@@H](O)[C@@H](OC)C(=O)[C@H](C)C[C@H](C)/C=C/C=C/C=C/1C` [Rapamycin (Sirolimus)] the value was 1.03 ± 0.21.
On to `N[C@@H]1CCCN(c2c(/C=C3\SC(=O)NC3=O)cccc2-c2ccccc2)C1`, for which the relative cell viability came out at 1.12 ± 0.024.
In the case of `Oc1ccc(Nc2nc(-c3ccc(Cl)cc3)cs2)cc1` it was 1.05 ± 0.0032; in that of `N#Cc1ccc2[nH]c(O)c(-c3ccc(CN4CCOCC4)cn3)c2c1`, 1.4 ± 0.13.
With `COc1cc2ncnc(Nc3ccc(Cl)cc3F)c2cc1OC`, the relative cell viability was determined as 1.078 ± 0.0047.
With `N#C[C@@H]1CCCN1C(=O)CNC12CC3CC(CC(O)(C3)C1)C2` [Vildagliptin (LAF-237)], the relative cell viability came out at 1.14 ± 0.24.
Regarding `CCN(CC)CCN(Cc1ccc(-c2ccc(C(F)(F)F)cc2)cc1)C(=O)Cn1c(SCc2ccc(F)cc2)nc(=O)c2c1CCC2`, the relative cell viability was 0.44 ± 0.095.
As to `CC(C)C[C@H](NC(=O)CNC(=O)c1cc(Cl)ccc1Cl)B(O)O`, the relative cell viability came out at 0.799 ± 0.013.
Regarding `O=S(=O)(NCCNCC=Cc1ccc(Br)cc1)c1cccc2cnccc12`, the relative cell viability stood at 1.12 ± 0.058.
In the case of `CNC[C@H](O)c1cccc(O)c1` [Phenylephrine HCl] it was 1.12 ± 0.083; in that of `CCn1cc(-c2ccnc3[nH]c(-c4cccc(CN(C)C)c4)cc23)c(-c2ccc(NC(=O)N(C)C)cc2)n1`, 1.14 ± 0.33; in that of `CCOc1ccn(-c2ccc(F)cc2)c(=O)c1C(=O)Nc1ccc(Oc2ccnc(N)c2Cl)c(F)c1`, 1.06 ± 0.021.
`Cc1nc(Nc2n[nH]c3c2CN(C(=O)N[C@H](CN(C)C)c2ccccc2)C3(C)C)c2sccc2n1`: the relative cell viability was 0.5266 ± 0.0033.
In the case of `CSc1cccc(Nc2ncc3cc(-c4c(Cl)cccc4Cl)c(=O)n(C)c3n2)c1` it was 0.739 ± 0.014.
Regarding `OCc1ccc(-c2ccc(-c3ccc(CO)s3)o2)s1`, the relative cell viability worked out at 0.225 ± 0.01.
Consider `O=c1c(-c2ccc(O)cc2)coc2cc(O)cc(O)c12` [Genistein], for which the relative cell viability turned out to be 1.1 ± 0.12.
With `Cc1cc(N2CCOCC2)ccc1Nc1nc(NC2CCCCC2)c2[nH]cnc2n1`, the relative cell viability came to 1.14 ± 0.29.
With `O=C(O)c1ccc(Nc2ncc3c(n2)-c2ccc(Cl)cc2C(c2c(F)cccc2F)=NC3)cc1`, the relative cell viability was 1.19 ± 0.096.
`COc1cc2c(cc1OC)-c1cc3ccc(OC)c(OC)c3c[n+]1CC2` [Palmatine chloride]: the relative cell viability is 1.05 ± 0.12.
On to `CNC(=C[N+](=O)[O-])NCCSCc1ccc(CN(C)C)o1` [Ranitidine], for which the relative cell viability was 0.985 ± 0.014.
`C=CCc1ccc(O)c(-c2ccc(O)c(CC=C)c2)c1` [Honokiol]: the relative cell viability came to 0.92 ± 0.13.
In the case of `O=c1ncn2nc(Sc3ccc(F)cc3F)ccc2c1-c1c(Cl)cccc1Cl` it was 1.31 ± 0.042; in that of `C[C@]12C=CC(=O)C=C1CC[C@@H]1[C@@H]2[C@@H](O)C[C@@]2(C)[C@H]1CC[C@]2(O)C(=O)CO` [Prednisolone], 1.02 ± 0.044.
Regarding `O=c1[nH]cc(F)c(=O)[nH]1` [Fluorouracil (5-Fluoracil, 5-FU)], the relative cell viability is 1.23 ± 0.11.
For `CS(=O)(=O)c1ccc([C@@H](O)[C@@H](CO)NC(=O)C(Cl)Cl)cc1` [Thiamphenicol], the relative cell viability was 1.33 ± 0.038.
Regarding `Cc1cncc(CN2CCC(=C3c4ccc(Cl)cc4CCc4cccnc43)CC2)c1` [Rupatadine Fumarate], the relative cell viability was determined as 1.08 ± 0.18.
Consider `CC(=O)Oc1cc(C(F)(F)F)ccc1C(=O)O` [Triflusal], for which the relative cell viability was 1.08 ± 0.12.
In the case of `CNC(=O)c1ccc2cc([C@@]3(O)CCn4cncc43)ccc2c1` [TAK-700 (Orteronel)], the relative cell viability is 1.13 ± 0.14.
As for `N=c1ccn2c(n1)O[C@H]1[C@H](O)[C@@H](CO)O[C@H]12` [Cyclocytidine HCl], the relative cell viability was 1.02 ± 0.042.
As for `CN(C)CCCNC(=O)c1ccc(-c2cc(O)c3ncccc3c2)cc1`, the relative cell viability turned out to be 0.838 ± 0.11.
For the compound `C[C@@H]1CC(=O)NN=C1c1ccc(NN=C(C#N)C#N)cc1` [Levosimendan], the relative cell viability amounted to 1.05 ± 0.059.
Consider `C[C@@H](c1ncncc1F)[C@](O)(Cn1cncn1)c1ccc(F)cc1F` [Voriconazole], for which the relative cell viability turned out to be 1.17 ± 0.083.
In the case of `O=C(O)Cc1ccccc1Nc1c(Cl)cccc1Cl` [Diclofenac Potassium], the relative cell viability was 1.13 ± 0.06.
`O=C(O)Cc1ccccc1Nc1c(Cl)cccc1Cl` [Diclofenac Diethylamine]: the relative cell viability came out at 1.26 ± 0.18.
Regarding `O=C(O)Cc1ccccc1Nc1c(Cl)cccc1Cl` [Diclofenac Sodium], the relative cell viability came out at 1.098 ± 0.0064.
As to `Cc1c(NC(=O)c2ccc(C(C)(C)C)cc2)cccc1-c1cn(C)c(=O)c(Nc2ccc(C(=O)N3CCOCC3)cc2)n1`, the relative cell viability is 1.04 ± 0.046.
As for `NC(=O)c1noc([C@H](CCCC2CCCCC2)CC(=O)NO)n1`, the relative cell viability was determined as 0.967 ± 0.089.
For `CN1CCN(CCCNc2ncc(Cl)c(-c3cc4c(C(=O)NC5CC5)cccc4s3)n2)CC1`, the relative cell viability was 1.054 ± 0.0075.
In the case of `CC[C@@]1(O)C(=O)OCc2c1cc1n(c2=O)Cc2cc3cc(O)ccc3nc2-1` [(S)-10-Hydroxycamptothecin] it was 0.467 ± 0.013; in that of `Cc1cccc(-c2[nH]c(C(C)(C)C)nc2-c2ccc3nccnc3c2)n1`, 0.962 ± 0.014.
Turning to `NC1(c2ccc(-c3nc4ccn5c(=O)[nH]nc5c4cc3-c3ccccc3)cc2)CCC1`, the relative cell viability came to 0.884 ± 0.087.
Take `Cc1cnc(Nc2ccc(N3CCN(C)CC3)cc2)nc1Nc1cccc(S(=O)(=O)NC(C)(C)C)c1`: the relative cell viability amounted to 0.857 ± 0.15.
In the case of `CC(C)CCN1c2nc(Nc3cc(F)c(O)c(F)c3)ncc2N(C)C(=O)C1C` (configuration not stated) it was 0.989 ± 0.16; in that of `O=C1NC(=O)/C(=C/c2ccc(-c3ccc(F)cc3O)o2)S1`, 0.905 ± 0.043.
In the case of `CCn1c(=O)c(-c2ccc(-c3cncs3)cc2Cl)cc2cnc(Nc3ccc(N4CCN(C)CC4)cc3)nc21`, the relative cell viability was found to be 0.183 ± 0.025.
In the case of `CNC1CCC(N(Cc2cccc(-c3ccncc3)c2)C(=O)c2sc3ccccc3c2Cl)CC1` (configuration not stated) [Smoothened Agonist (SAG) HCl] it was 1.15 ± 0.016; in that of `CCCC(C)NC(=O)c1ccc(Cl)c(Cl)c1` (configuration not stated), 1.4 ± 0.089; in that of `Nc1ccc(S(=O)(=O)Nc2ncccn2)cc1` [Sulfadiazine], 1.03 ± 0.045.
In the case of `C#C[C@]1(OC(C)=O)CC[C@H]2[C@@H]3CCC4=C[C@@H](OC(C)=O)CC[C@@H]4[C@H]3CC[C@@]21C` [Ethynodiol diacetate] it was 1 ± 0.018; in that of `CC(C)[C@H](C(=O)Nc1ccc(C(=O)NO)cc1)c1ccccc1`, 0.178 ± 0.0071; in that of `C#C[C@]1(O)CC[C@H]2[C@@H]3CCC4=CC(=O)CC[C@@H]4[C@H]3CC[C@@]21C` [Norethindrone], 1.13 ± 0.1.
As for `CCOc1cn(-c2ccc(F)cc2C)nc1C(=O)Nc1ccc(Oc2ccnc3cc(OC)c(OC)cc23)c(F)c1`, the relative cell viability is 0.939 ± 0.14.
